Test results published in patent US20090143279A1 (priority 2007, published 2009).

System: cellular ATP levels
Conditions: not given

| SMILES | ATP (composite Z-score vs DMSO mock-treated wells) | ATP |
| --- | --- | --- |
| CC12CCC3c4ccc(OCc5ccccc5)cc4CCC3C1C[C@@H](O)[C@@H]2O (stereo partly drawn) [estriol benzyl ether] | 2.168 | – |
| C[C@]12CC[C@H]3[C@@H](CC[C@]4(O)C[C@@H](O)CC[C@]34C=O)[C@@]1(O)CC[C@@H]2C1=CC(=O)OC1 [strophanthidin] | – | −0.236 |

Same assay, conditions: 20 μM; composite Z-score vs DMSO

| SMILES | ATP |
| --- | --- |
| Clc1ccc(C(c2ccccc2Cl)C(Cl)Cl)cc1 (stereo not drawn) [mitotane] | 0.341 |
| COC1=C[C@@H](C)[C@@H]2C[C@H]3OC(=O)C[C@H]4C(C)=C(OC)C(=O)[C@H]([C@@]2(C)C1=O)[C@@]34C [quassin, reference compound] | 0.866 |
| C=C[C@H]1CN2CC[C@H]1C[C@H]2[C@H](OC(=O)OCC)c1ccnc2ccc(OC)cc12 [quinine ethyl carbonate] | 0.317 |
| Cc1cc(=O)[nH]c(=S)[nH]1 [methylthiouracil] | 0.145 |

Same assay, conditions: Conc 20 μM; normalized score vs mock-treated (DMSO) wells

| SMILES | ATP (composite Z-score) |
| --- | --- |
| CC1(C)C2C[C@@H](O)[C@]3(C)C(CC[C@@]4(C)[C@H](c5ccoc5)OC(=O)C5OC543)[C@@]2(C)C(=O)C[C@H]1O (stereo partly drawn) [1-deacetoxy-1-oxo-3,7-dideacetylkhivorin] | −0.222 |
| CC12CCC(O)CC1CCc1ccccc12 (stereo not drawn) | −0.736 |
| COc1cc(OC)c2c(=O)cc(-c3ccccc3)oc2c1 [chrysin dimethyl ether] | −0.343 |
| CC(=O)O[C@@H]1C[C@H]2C(C)(C)CCC(=O)[C@]2(C)[C@H]2CC[C@@]3(C)[C@H](c4ccoc4)OC(=O)[C@H]4O[C@]43[C@@]21C [2,3-dihydroisogedunin] | 0.069 |
| O=C1c2ccc(O)cc2OC(c2cc(O)c(O)c(O)c2)C1O (stereo in doubt) [dihydrorobinetin, reference compound] | 0.456 |
| O=C(O[C@@H]1Cc2c(O)cc(O)cc2O[C@@H]1c1cc(O)c(O)c(O)c1-c1c([C@H]2Oc3cc(O)cc(O)c3C[C@H]2O)cc(O)c(O)c1O)c1cc(O)c(O)c(O)c1 [2′,2′-bisepigallocatechin monogallate] | 0.545 |
| CC(C)CCC[C@@H](C)C1CC[C@H]2[C@@H]3CCC4CC(=O)CC[C@]4(C)[C@H]3CC[C@]12C (stereo partly drawn) [cholestanone] | 1.206 |
| COc1cc2c(cc1-c1coc3c4c(c(OC)cc3c1=O)OC(C)(C)C=C4)OCO2 [ichthynone, reference compound] | −0.541 |
| CC(=O)Oc1cc2c(c(C)c1OC(C)=O)CC=C1[C@@]2(C)CC[C@@]2(C)C3C[C@](C)(C(=O)O)CC[C@]3(C)CC[C@]12C (stereo partly drawn) [dihydrocelastryl diacetate] | −4.966 |
| COc1ccc2c(c1)OC/C(=C\c1ccc(OC)c(O)c1)C2=O [sappanone A dimethyl ether] | −0.310 |

Same assay, conditions: Table 4; C2C12 myotubes, 48 h, composite Z-score

| SMILES | ATP |
| --- | --- |
| Oc1ccc([C@H]2Oc3cc(O)cc(O)c3C[C@H]2O)cc1 [epiafzelechin(2r,3r)(−), reference compound] | 0.986 |
| O=C1c2ccc(O)cc2OC(c2cc(O)c(O)c(O)c2)C1O (stereo in doubt) [dihydrorobinetin, reference compound] | 0.456 |
| COC(=O)Nc1nc2ccc(SC(C)C)cc2[nH]1 [methiazole, reference compound] | −0.555 |
| Cc1cc(O)c2c(c1O)C(=O)c1c(O)cc(C)c(O)c1C2=O [1,4,5,8-tetrahydroxy-2,6-dimethylanthroquinone, reference compound] | −0.346 |

Same assay, conditions: composite Z-score vs DMSO wells; Conc 20 μM

| SMILES | ATP |
| --- | --- |
| CCn1cc(C(=O)O)c(=O)c2cnc(N3CCNCC3)nc21 [pipemidic acid] | 0.849 |
| C[C@]12CC[C@H]3[C@@H](CC[C@]4(O)C[C@@H](O)CC[C@]34C=O)[C@@]1(O)CC[C@@H]2C1=CC(=O)OC1 [strophanthidin] | 0.227 |
| Cn1cnc2c1c(=O)[nH]c(=O)n2C [theobromine] | 0.392 |

Same assay, conditions: composite Z-score vs DMSO; Conc 8.66 μM

| SMILES | ATP |
| --- | --- |
| O=c1[nH]c2ccccc2n1C1CCN(CCCC(c2ccc(F)cc2)c2ccc(F)cc2)CC1 [pimozide] | −0.856 |

Same assay, conditions: composite Z-score vs DMSO; Conc 15.08 μM

| SMILES | ATP |
| --- | --- |
| COc1ccc(C[C@H]2NC[C@H](O)[C@H]2OC(C)=O)cc1 [Anisomycin, reference compound] | −1.426 |

Same assay, conditions: composite Z-score vs DMSO; Conc 20 μM

| SMILES | ATP |
| --- | --- |
| CC(C)=CCc1c(O)cc2occ(-c3ccc4c(c3)OCO4)c(=O)c2c1O [derrubone] | −3.786 |
| O=c1[nH]c2ccccc2n1C1CCN(CCCC(c2ccc(F)cc2)c2ccc(F)cc2)CC1 [pimozide] | −0.464 |
| O=c1c2ccccc2oc2ccc(O)cc12 [2-hydroxyxanthone] | −0.916 |
| Oc1ccc([C@H]2Oc3cc(O)cc(O)c3C[C@H]2O)cc1 [(2R,3R)-(−)-epiafzelechin] | 0.986 |
| COc1cc2c(cc1OC)[C@@H]1C(=O)c3ccc4c(c3O[C@@H]1CO2)CC(C(C)C)O4 (stereo partly drawn) [dihydrorotenone, reference compound] | −5.350 |
| CC1(C)S[C@@H]2[C@H](N3C(=O)[C@@H](c4ccccc4)NC3(C)C)C(=O)N2[C@H]1C(=O)O [hetacillin] | 1.231 |
| Cc1cc(O)c2c(c1O)C(=O)c1c(O)cc(C)c(O)c1C2=O [1,4,5,8-tetrahydroxy-2,6-dimethylanthroquinone, reference compound] | −0.346 |
| NCCc1ccc(S(=O)(=O)F)cc1 [4-aminoethylbenzenesulfonyl fluoride] | 1.073 |
| CC(COc1ccccc1)NC(C)C(O)c1ccc(O)cc1 (stereo not drawn) [isoxsuprine] | −0.160 |
| CN1C(C)(C)CCCC1(C)C [pempidine] | 0.192 |
| COc1ccc2c(=O)ccoc2c1 [7-methoxychromone] | −0.063 |
| NC[C@@H]1O[C@H](O[C@H]2[C@@H](O)[C@H](O[C@@H]3[C@@H](O)[C@H](N)C[C@H](N)[C@H]3O[C@H]3O[C@H](CN)[C@@H](O)[C@H](O)[C@H]3N)O[C@@H]2CO)[C@H](N)[C@@H](O)[C@@H]1O [neomycin] | −1.028 |

Same assay, conditions: composite Z-score vs mock-treated (DMSO) wells; Conc 20 μM

| SMILES | ATP |
| --- | --- |
| COc1cccc2c1CCC1=CC(=O)CCC12C (stereo not drawn) | −0.516 |
| COc1c(O)cc(O)cc1O [iretol] | −0.628 |
| CC(=O)O[C@H]1CC[C@]2(C)[C@H]3CC[C@@]4(C)[C@H](c5ccoc5)OC(=O)[C@H]5O[C@]54[C@]3(C)[C@H](OC(C)=O)C[C@H]2C1(C)C [3beta-acetoxydeoxodihydrogedunin] | 0.077 |
| CC(=O)O[C@@H]1CC[C@@]2(C)C(C[C@@H](OC(C)=O)[C@@]3(C)C4=CC(=O)O[C@@H](c5ccoc5)[C@]4(C)CCC23)C1(C)C (stereo partly drawn) [3alpha-acetoxydihydrodeoxygedunin] | −0.586 |
| C[C@@H]1C(=O)O[C@H]2[C@H]1CC[C@@]1(C)C=CC(=O)[C@@]3(C)O[C@@]213 [epoxy (4,5alpha)-4,5-dihydrosantonin] | 0.475 |
| CC(=O)O[C@@H]1C=C[C@]2(C)C(C[C@@H](OC(C)=O)[C@]3(C)C4=CC(=O)O[C@H](c5ccoc5)[C@@]4(C)CCC23)C1(C)C (stereo partly drawn) [deoxygedunol acetate] | 0.032 |

Same assay, conditions: normalized composite Z-score vs mock-treated (DMSO) wells; Conc 20 μM

| SMILES | ATP |
| --- | --- |
| C=C/C(C)=C\CC1C(C)(O)CCC2C(C)(C)CCCC21C (stereo not drawn) [abienol] | 1.677 |
| COc1ccc(-c2cc(=O)c3c(O)c(OC)c(O[C@@H]4O[C@H](CO[C@@H]5O[C@@H](C)[C@H](O)[C@@H](O)[C@H]5O)[C@@H](O)[C@H](O)[C@H]4O)cc3o2)cc1 [pectolinarin] | −0.465 |
| C[C@@H]1CC[C@@]2(OC1)O[C@H]1C[C@H]3[C@@H]4CC[C@H]5C[C@@H](O)CC[C@]5(C)C4=CC[C@]3(C)[C@H]1[C@@H]2C [hydroxy (3beta)isoallospirost-9 (11)-ene] | −0.703 |
| CC(=O)C=CC1C(C)(O)CCC2C(C)(C)CCCC21C (stereo not drawn) [8-hydroxy-15,16-bisnor-11-labden-13-one] | 0.871 |
| COC(=O)c1c(C)c2c(c(C)c1OC)OC(=O)c1c(C)c(Cl)c(OC)c(Cl)c1O2 [leoidin dimethyl ether] | 0.448 |
| C[C@]12CC[C@H]3[C@@H](CC[C@]4(O)C[C@@H](O)CC[C@]34C=O)[C@@]1(O)CC[C@@H]2C1=CC(=O)OC1 [strophanthidin] | 0.044 |
| CC(=O)OC1CCC2(C)C(CCC3C2CCC2(C)C3CC3OC4(CCC(C)CO4)C(C)C32)C1 (stereo not drawn) [neotigogenin acetate] | −0.797 |
| C[C@H](CCC(=O)O)[C@H]1CC[C@H]2[C@@H]3CCC4CCCC[C@]4(C)[C@H]3C=C[C@]12C (stereo partly drawn) [chol-11-enic acid] | −0.496 |
